Hit rate of the full screen: of about 410,000 compounds, about 6,400 (1.6%) were called active. The inconclusive results got no clear call from the source; some entries with a clear call stand among them for comparison. The call rests on the fitted dose curve; in most records, active means well fitted inhibition curve with a large enough effect; inconclusive means small, poorly fitted or top-dose-only effect; inactive means no such curve, though single readings can be large or run the other way. Potencies of inconclusive entries are left out as doubtful fits.
These compounds were tested against Glucagon-like peptide 1 receptor (Homo sapiens) (UniProt P43220) (assay: qHTS of GLP-1 Receptor Inverse Agonists (Inhibition Mode)). Settings: HEK293 GLP-1R CRE-luciferase, luminescence, 24 h, GLP-1R form is constitutively active; series mostly up to 38.3 µM.
How it was run: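 GLP-1R inverse agonism mode: basal reporter luminescence in engineered HEK293 cells measured after one day of compound exposure at 37 deg C, with a 12 min room-temperature detection step.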
Further: nearly all actives have a fitted effect of over 55% in size.
Potency means the concentration at half of the fitted maximal effect; tags describe the fitted curve by direction and shape.

Chain of UniProt P43220 (P43220 whole entry, looked up): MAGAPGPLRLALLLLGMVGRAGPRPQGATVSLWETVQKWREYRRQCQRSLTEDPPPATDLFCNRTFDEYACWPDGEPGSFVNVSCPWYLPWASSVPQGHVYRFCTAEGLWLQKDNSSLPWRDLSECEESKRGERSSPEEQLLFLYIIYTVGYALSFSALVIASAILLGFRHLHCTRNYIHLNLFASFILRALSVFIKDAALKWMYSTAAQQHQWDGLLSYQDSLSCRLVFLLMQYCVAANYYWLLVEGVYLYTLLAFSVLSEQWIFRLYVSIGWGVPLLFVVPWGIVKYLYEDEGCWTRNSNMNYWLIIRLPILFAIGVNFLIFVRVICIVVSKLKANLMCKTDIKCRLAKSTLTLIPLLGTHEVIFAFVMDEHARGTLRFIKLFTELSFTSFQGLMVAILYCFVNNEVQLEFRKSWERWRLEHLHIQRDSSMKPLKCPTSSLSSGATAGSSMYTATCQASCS

SMILES | Potency
CC(C)(C)c1cc(CNC2CS(=O)(=O)C[C@@H]2O)cc(C(C)(C)C)c1O (stereo not given in full) | inconclusive [inhibitor, single point]
CCCN(CC(=O)Nc1ccccc1Br)CC(=O)Nc1ccc(F)c(F)c1F | inconclusive [inhibitor, partial curve]
Cc1ccc(C)c(C(=O)COC(=O)c2ccc(C)c(S(=O)(=O)N3CCOCC3)c2)c1 | inconclusive [inhibitor, partial curve, poor fit]
CCc1ccc(S(=O)(=O)Nc2cc3c(cc2C)n(C)c(=O)n3C)cc1 | inconclusive [inhibitor, full curve, poor fit]
Cc1ccccc1CN1CCN(C(=O)c2cccc3ccccc23)CC1 | active: 10 µM
CCOc1cc(C(=O)N/N=C\c2cn(CC)nc2C)cc(OCC)c1OCC | inconclusive [inhibitor, single point]
CC1=C(C)CC(C(=O)Nc2nc(-c3ccc(C)cc3C)c(C)s2)C(C(=O)O)C1 (stereo not given) | inconclusive [inhibitor, single point]
COc1ccc(NC(=O)N2CCCc3cc(C)ccc32)c(OC)c1 | inconclusive [inhibitor, full curve, poor fit]
Nc1ccc2nc(-c3ccc(Cl)cc3)[nH]c2c1 | inconclusive [inhibitor, single point]
Cc1cccc(Oc2ccccc2NC(=O)CSCC(=O)Nc2cc(C)on2)c1 | inconclusive [inhibitor, partial curve]
CCOc1cc(CNCCN2CCOCC2)ccc1OCc1ccccc1Cl | inconclusive [inhibitor, partial curve, poor fit]
CCOC(=O)C(C)N1C(=O)S/C(=C/c2cc(C)n(-c3ccncc3)c2C)C1=O (stereo not given) | inconclusive [inhibitor, single point]
CC(C)n1cc(CN2CCCC(C(=O)Nc3cccc(-c4cc5ccccc5[nH]4)c3)C2)cn1 (stereo not given) | inconclusive [inhibitor, partial curve, poor fit]
COc1ccccc1NCC(O)Cn1c2ccccc2c2ccccc21 (stereo not given) | inconclusive [inhibitor, partial curve, poor fit]
O=C(C(=O)N1CCN(c2ccncc2)CC1)c1cccc(Br)c1 | inconclusive [inhibitor, partial curve, poor fit]
CN1CCN(c2ccc(-c3cc(NC=O)c4ncc(-c5ccc(F)cc5)n4c3)cc2)CC1 | inconclusive [inhibitor, partial curve, poor fit]
O=C(/C=C/c1ccc(Br)cc1)NC(=S)NNC(=O)c1ccco1 | inactive
O=C(CCc1ccccc1)NC1(Cc2ccccc2)CCN(CCc2cccs2)C1=O (stereo not given) | active: 10 µM
COC(=O)c1cc(S(=O)(=O)NCC2CCN(CCc3ccc(OC)cc3)CC2)cn1C | inconclusive [inhibitor, single point]
CCOc1ccc(OCC)c(NC(=O)CCCN2C(=S)NC(C)(C)CC2C)c1 (stereo not given) | inactive

SMILES | Potency
COc1cccc(-c2cc(NC(C)=O)c3ncc(-c4cccc(C(C)=O)c4)n3c2)c1 | inactive
O=C(c1ccco1)N1CCN(C(=O)C2CCCc3c2[nH]c2ccc(Cl)cc32)CC1 (stereo not given) | active: 5.01 µM
CCCOC(=O)C(C)n1cnc2scc(-c3ccc(C)cc3)c2c1=O (stereo not given) | inconclusive [inhibitor, single point]
CCCS(=O)(=O)NCCc1sc2nc(-c3ccc(Cl)cc3)nn2c1C | inconclusive [inhibitor, full curve, poor fit]
O=[N+]([O-])c1ccc(OCc2cnc(Cl)s2)c([N+](=O)[O-])c1 | inconclusive [inhibitor, partial curve, poor fit]
COc1ccc(-n2cc(-c3ccccc3)nc2SC)cc1 | inconclusive [inhibitor, single point]
Cc1cccc(NC(=O)c2cccc(NC(=O)c3ccco3)c2)c1C | inconclusive [inhibitor, full curve, poor fit]
Cc1ccc(Cn2c(C)c(C(=O)NCc3ccc4c(c3)OCO4)sc2=O)cc1 | inconclusive [inhibitor, single point]
COC(=O)C(NNc1ccccc1)(NC(=O)c1ccc(F)cc1)C(F)(F)F (stereo not given) | inconclusive [inhibitor, partial curve, poor fit]
COc1cc(/C=C2\COC/C(=C\c3cc(OC)c(OC)c(OC)c3)C2=O)cc(OC)c1OC | inconclusive [inhibitor, full curve, poor fit]
COc1ccccc1CNc1ncnc2onc(-c3ccc(Cl)cc3)c12 | inactive
O=C(O)CN1C(=O)/C(=C\c2cc(Br)ccc2OCc2ccc(Cl)cc2)SC1=S | inconclusive [inhibitor, single point]
Cc1[nH]c2ccccc2c1C1(O)C(=O)N(Cc2ccccc2)c2ccc(Br)cc21 (stereo not given) | inconclusive [inhibitor, single point]
COc1cc(NC(=O)c2cc(-c3ccco3)on2)c(OC)cc1Cl | inactive
Cc1c(F)cccc1NS(=O)(=O)c1ccc2c(c1)NC(=O)CO2 | inconclusive [inhibitor, single point]
Cc1ccc(-n2ncc(C(=O)NCCN3CCc4ccccc4C3)c2C2CCN(C(=O)OC(C)(C)C)CC2)c(C)c1 | inconclusive [inhibitor, single point]
O=C(CN1C(=O)COc2ccc(S(=O)(=O)NC3CCCC3)cc21)Nc1ccc(F)c(Cl)c1 | inconclusive [inhibitor, partial curve, poor fit]
CCCCCOc1ccc(CSCCNC(=S)Nc2ccccc2)cc1 | inconclusive [inhibitor, single point]
OC(c1ccc(-c2ccccc2)cc1)c1ncc(-c2ccc(F)cc2)[nH]1 (stereo not given) | inconclusive [inhibitor, partial curve, poor fit]
Cc1ccc2nc(-c3ccc(N4CCOCC4)cc3)c(Nc3ccccc3C)n2c1 | inconclusive [inhibitor, partial curve, poor fit]

SMILES | Potency
COc1ccc(-c2nnc(SCC(=O)c3cccs3)n2-c2ccc(Cl)cc2)cc1 | inconclusive [inhibitor, partial curve, poor fit]
CNC(=O)C1CCC(Cn2c(=O)c3sccc3n(CC(=O)Nc3ccc(C)cc3C)c2=O)CC1 (stereo not given) | inactive
Cc1ccc([C@H]2C[C@H](n3cc(COC(=O)c4ccccc4)nn3)[C@@H](O)CN2Cc2cccs2)cc1 | inconclusive [inhibitor, single point]
COc1cc(NC(=O)c2cc([N+](=O)[O-])ccc2NC(=O)CNC2CCCCC2C)cc(OC)c1 (stereo not given) | inconclusive [inhibitor, partial curve]
O=[N+]([O-])c1ccc(NN=Cc2ccccc2O)nc1 | inconclusive [inhibitor, full curve, poor fit]
CCCCSc1nc(C)c(C(C)=O)cc1C#N | inactive
Cc1ccc(S(=O)(=O)Nc2cc(C(=O)NCCN(C)C)ccc2N2CCCC2)cc1 | inconclusive [inhibitor, partial curve, poor fit]
CC1=NN(C(=O)c2cccnc2)C(O)(C(F)(F)F)C1 (stereo not given) | inconclusive [inhibitor, partial curve, poor fit]
CC(NC(=O)CN1C(=O)NC(C)(c2cccc3ccccc23)C1=O)c1ccccc1 (stereo not given) | inconclusive [inhibitor, partial curve, poor fit]
COc1ccc(CCNC(=O)c2[nH]c(C)c(C(C)=O)c2C)cc1 | inactive
CC1(c2nnc(-c3ccc(F)cc3)o2)CC(c2cccc(Cl)c2)=NO1 (stereo not given) | inconclusive [inhibitor, partial curve, poor fit]
CSc1c(CC(=O)Nc2ccccc2)n(C)c2ccccc12 | inconclusive [inhibitor, full curve, poor fit]
CC(=O)c1cccc(NC(=O)c2ccc3ccccc3c2)c1 | inconclusive [inhibitor, single point]
Cc1ccccc1OCC(O)CN1CCN(CC(O)COc2ccccc2C)C(C)C1 (stereo not given) | inconclusive [inhibitor, partial curve, poor fit]
CC(=O)/C(=N/Nc1ccccc1)Sc1nnc(C(O)c2ccccc2)n1-c1ccccc1 (stereo not given) | inconclusive [inhibitor, single point]
Cc1ccccc1C(OCC(O)CN1CCC(C(N)=O)CC1)c1ccccc1 (stereo not given) | inconclusive [inhibitor, partial curve, poor fit]
O=C(NC1CCCC1)C(c1ccc(Cl)cc1)N(C(=O)c1csnn1)C1CC1 (stereo not given) | inconclusive [inhibitor, single point]
COc1ccc(Cl)cc1NC(=O)CN1C(=O)NC(Cc2c[nH]c3ccccc23)C1=O (stereo not given) | inconclusive [inhibitor, partial curve, poor fit]
Cc1cc(C)nc(NC(=NCCc2c[nH]c3ccccc23)NC(=O)C(C)(C)C)n1 | inconclusive [inhibitor, full curve, poor fit]
O=C(Nc1ccc2c(c1)CCC2)c1ccc(Br)o1 | inconclusive [inhibitor, single point]

From PubChem BioAssay AID624417 (National Center for Advancing Translational Sciences (NCATS), 2012)
